Here are results for one substance from publication PMC8883442.

Protein sequences, listed by entry. Tags and fused reporters are not part of them. Lines headed by an entry give the natural chain unless they say otherwise; changes in a name come on top.
UniProt Q00537: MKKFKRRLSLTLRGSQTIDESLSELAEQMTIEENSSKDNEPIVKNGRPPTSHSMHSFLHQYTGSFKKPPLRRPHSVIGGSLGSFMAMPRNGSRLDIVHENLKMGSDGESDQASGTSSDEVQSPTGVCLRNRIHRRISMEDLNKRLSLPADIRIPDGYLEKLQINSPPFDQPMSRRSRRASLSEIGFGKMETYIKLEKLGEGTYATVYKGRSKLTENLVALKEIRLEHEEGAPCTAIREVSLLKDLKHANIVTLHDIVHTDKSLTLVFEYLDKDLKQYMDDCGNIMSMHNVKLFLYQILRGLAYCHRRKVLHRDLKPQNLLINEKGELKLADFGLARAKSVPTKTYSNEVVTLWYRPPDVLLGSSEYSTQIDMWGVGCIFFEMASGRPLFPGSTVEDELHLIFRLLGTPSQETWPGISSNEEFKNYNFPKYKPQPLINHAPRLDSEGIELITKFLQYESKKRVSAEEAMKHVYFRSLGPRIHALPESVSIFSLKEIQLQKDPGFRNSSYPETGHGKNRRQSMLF
UniProt Q9HC98: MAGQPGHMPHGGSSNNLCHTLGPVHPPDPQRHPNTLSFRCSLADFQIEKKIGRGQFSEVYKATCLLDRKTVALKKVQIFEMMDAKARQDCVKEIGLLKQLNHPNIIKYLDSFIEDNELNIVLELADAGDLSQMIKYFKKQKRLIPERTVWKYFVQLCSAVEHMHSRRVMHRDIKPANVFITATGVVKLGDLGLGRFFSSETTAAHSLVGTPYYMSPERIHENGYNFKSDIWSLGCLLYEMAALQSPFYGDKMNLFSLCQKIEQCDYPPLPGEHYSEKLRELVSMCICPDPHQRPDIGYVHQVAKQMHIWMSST
UniProt Q9P286: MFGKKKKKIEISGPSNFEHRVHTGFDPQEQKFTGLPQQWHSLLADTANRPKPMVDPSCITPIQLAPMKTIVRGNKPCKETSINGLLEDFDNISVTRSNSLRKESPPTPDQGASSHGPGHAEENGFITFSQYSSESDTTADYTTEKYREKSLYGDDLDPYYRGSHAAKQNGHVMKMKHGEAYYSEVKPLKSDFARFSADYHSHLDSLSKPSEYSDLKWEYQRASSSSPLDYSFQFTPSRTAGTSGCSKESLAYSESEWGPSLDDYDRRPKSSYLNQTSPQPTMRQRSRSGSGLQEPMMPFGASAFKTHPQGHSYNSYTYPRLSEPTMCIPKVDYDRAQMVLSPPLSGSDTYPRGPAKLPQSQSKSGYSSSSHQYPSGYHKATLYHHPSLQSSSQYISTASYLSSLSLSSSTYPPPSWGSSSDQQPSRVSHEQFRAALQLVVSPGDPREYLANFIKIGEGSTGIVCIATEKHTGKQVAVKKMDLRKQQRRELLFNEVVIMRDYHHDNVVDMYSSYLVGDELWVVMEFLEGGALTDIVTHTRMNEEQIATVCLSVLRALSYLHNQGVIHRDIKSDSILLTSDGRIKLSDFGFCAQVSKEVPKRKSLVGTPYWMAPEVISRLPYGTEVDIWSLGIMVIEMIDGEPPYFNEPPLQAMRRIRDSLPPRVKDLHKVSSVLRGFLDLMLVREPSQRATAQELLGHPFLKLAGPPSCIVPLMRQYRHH
UniProt P31946: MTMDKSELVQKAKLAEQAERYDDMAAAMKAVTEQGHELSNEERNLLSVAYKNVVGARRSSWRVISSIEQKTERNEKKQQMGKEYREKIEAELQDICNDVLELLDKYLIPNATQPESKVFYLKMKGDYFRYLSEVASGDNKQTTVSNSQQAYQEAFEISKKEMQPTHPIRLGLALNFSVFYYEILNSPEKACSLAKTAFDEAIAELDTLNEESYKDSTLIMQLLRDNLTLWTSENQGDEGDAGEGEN

No constants are given. Whether binding was seen depends on the method and setting. In cells and extracts the contact can be indirect. Some results given as binding are weak or reduced against the parent protein; the word gives no strength. For part of these data: Sequences can lack the tags named with a protein.

Holding throughout (test): co-IP; LUMIER: luciferase-based co-immunoprecipitation in HEK293T, 96-well; firefly-V5-14-3-3β with protein A-tagged kinases, luciferase read-out
Assay [1] concerns the target T1, BUB1(K821M) kinase-dead mutant, protein A fusion (HEK293T) (human) (UniProt O43683).
T1 sequence: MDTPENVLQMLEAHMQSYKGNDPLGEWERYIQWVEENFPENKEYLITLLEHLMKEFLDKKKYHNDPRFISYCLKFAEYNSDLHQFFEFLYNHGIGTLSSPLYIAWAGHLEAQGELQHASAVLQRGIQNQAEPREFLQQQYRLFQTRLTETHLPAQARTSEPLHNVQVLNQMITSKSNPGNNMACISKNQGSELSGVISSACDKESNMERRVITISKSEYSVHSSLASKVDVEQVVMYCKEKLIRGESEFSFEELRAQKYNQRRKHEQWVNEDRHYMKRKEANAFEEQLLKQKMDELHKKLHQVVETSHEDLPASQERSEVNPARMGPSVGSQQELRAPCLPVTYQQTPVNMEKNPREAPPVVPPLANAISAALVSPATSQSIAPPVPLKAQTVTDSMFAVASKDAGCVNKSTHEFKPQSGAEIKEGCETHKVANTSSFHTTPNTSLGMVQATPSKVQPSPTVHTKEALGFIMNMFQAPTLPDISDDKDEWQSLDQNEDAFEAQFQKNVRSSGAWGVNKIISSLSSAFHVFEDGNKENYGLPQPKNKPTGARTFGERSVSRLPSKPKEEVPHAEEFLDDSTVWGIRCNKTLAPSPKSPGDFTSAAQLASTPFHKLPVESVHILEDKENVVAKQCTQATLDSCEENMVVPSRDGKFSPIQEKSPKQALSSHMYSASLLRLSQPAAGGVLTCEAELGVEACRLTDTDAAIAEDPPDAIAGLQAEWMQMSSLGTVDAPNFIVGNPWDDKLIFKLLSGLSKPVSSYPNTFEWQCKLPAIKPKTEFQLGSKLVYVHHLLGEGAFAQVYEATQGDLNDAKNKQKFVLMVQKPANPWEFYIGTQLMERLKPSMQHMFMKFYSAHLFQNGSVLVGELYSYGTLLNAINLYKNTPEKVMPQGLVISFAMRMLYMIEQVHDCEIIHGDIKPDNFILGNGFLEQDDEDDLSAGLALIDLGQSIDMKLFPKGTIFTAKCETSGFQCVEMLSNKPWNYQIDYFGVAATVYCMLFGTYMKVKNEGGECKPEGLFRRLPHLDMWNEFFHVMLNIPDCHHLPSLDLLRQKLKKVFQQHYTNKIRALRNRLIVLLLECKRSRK

Assay [2] deals with BUB1, wild type, protein A fusion (HEK293T) (human) (UniProt O43683).
For assay [3], the target named is CDK17, wild type, protein A fusion (HEK293T) (human) (UniProt Q00537).
Assay [4] concerns the target NEK6(K74M&K75M) kinase-dead mutant, protein A fusion (HEK293T) (human) (UniProt Q9HC98).
Assay [5] has as its target NEK6, wild type, protein A fusion (HEK293T) (human) (UniProt Q9HC98).
The target in assay [6] is PAK5, wild type, protein A fusion (HEK293T) (human) (UniProt Q9P286).

With “firefly-V5 fusion 14-3-3β (HEK293T) (from UniProt P31946 1-246)”, the binding entry in assay [1] is “no binding”; in assay [2] it was “no binding”; in assay [3], “binds”; in assay [4], “no binding”; in assay [5], “no binding”; in assay [6] it was “binds”.
